Among the data in PubChem BioAssay AID1645887 (National Center for Advancing Translational Sciences (NCATS), 2021) are activation values, retold here.

Where “and” joins values, the source holds several entries; their conditions need not be identical. Equal entries are not always repeated. The whole screen tested about 16,000 compounds, of which about 40 (0.2%) were called active. Inconclusive results (about 1%) are left out. Calls follow the shape of the dose curve; as a rule, active = well fitted activation curve with a large enough effect; inconclusive = small, poorly fitted or top-dose-only effect, or another doubt; inactive = no such curve, though single readings can be large or run the other way. This is one part of the list.
% is scaled to controls: 0 for no effect and ±100 for the full control effect.

UniProt Q8WZA2, sequence (Q8WZA2 whole entry, looked up): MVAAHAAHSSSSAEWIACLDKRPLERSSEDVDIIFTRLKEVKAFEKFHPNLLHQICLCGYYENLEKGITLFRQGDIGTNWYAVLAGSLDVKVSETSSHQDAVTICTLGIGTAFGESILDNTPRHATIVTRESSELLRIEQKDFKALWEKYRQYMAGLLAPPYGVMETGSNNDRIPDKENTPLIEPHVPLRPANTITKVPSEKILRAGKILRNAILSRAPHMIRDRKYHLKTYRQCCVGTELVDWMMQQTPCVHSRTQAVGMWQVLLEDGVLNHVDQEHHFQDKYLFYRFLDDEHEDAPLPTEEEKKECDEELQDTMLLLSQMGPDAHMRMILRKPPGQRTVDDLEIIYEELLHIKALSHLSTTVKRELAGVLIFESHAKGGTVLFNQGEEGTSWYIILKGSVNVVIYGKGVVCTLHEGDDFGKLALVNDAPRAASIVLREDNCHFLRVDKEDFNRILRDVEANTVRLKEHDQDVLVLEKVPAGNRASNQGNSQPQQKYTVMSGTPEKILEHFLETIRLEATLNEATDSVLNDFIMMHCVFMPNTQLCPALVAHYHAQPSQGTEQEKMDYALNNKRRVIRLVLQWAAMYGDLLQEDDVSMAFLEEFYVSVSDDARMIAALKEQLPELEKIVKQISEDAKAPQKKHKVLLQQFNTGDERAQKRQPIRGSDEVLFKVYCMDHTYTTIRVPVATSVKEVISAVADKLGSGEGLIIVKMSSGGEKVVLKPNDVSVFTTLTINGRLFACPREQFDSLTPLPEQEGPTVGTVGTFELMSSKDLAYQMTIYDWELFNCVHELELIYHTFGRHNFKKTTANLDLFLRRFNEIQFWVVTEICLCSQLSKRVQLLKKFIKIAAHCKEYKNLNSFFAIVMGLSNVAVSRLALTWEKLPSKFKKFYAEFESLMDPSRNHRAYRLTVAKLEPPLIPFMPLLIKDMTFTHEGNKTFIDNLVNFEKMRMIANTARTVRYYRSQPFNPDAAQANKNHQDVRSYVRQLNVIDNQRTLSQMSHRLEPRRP

The target of this experiment is Rap guanine nucleotide exchange factor 4 (Homo sapiens) (UniProt Q8WZA2). Briefly: Validation qHTS for agonist of cAMP-regulated guanine nucleotide exchange factor 4 (EPAC2).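 Also: exchange makes BODIPY-GDP fluorescence drop when released from Rap1B; series mostly up to about 150 µM.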 The note with it: EPAC2 Rap1B BODIPY-GDP exchange, fluorescence; activation: hits give high values. Summed up:
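Signal normalized against 6.5 mM cAMP as agonist control. Mix of EPAC2 (100 nM), RAP1B-BODIPY-GDP (250 nM) and GDP (50 uM) was read kinetically at 480/540 nm, every 5 min over 30 min, after 5 min room-temperature incubation with compound.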
On to `Oc1cc(-c2nc3ccccc3s2)cc2c1OCCN(Cc1cccn1-c1ncccn1)C2`, for which the activation was inactive: -12.9%.

For the compound `CSc1nnc(CCNC(=O)c2ccc(-c3cccc(F)c3)cc2)n1-c1ccc(F)cc1`, the activation was inactive: -19.2%. On to `CCCCN1CC[C@H]2C=CC[C@@H](C(=O)NCc3cccnc3)[C@H]2C1=O`, for which the activation is inactive: -4.87%. In the case of `COC(=O)[C@H]1[C@H]2C[C@@H]3c4[nH]c5cc(OC)ccc5c4CCN3C[C@H]2C[C@@H](OC(=O)/C=C/c2cc(OC)c(OC)c(OC)c2)[C@@H]1OC`, the activation is inactive: 3.06%. With `NCCCC[C@H](NC(=O)[C@@H]1CCCN1C(=O)[C@@H]1CSSC[C@H](N)C(=O)N[C@@H](Cc2ccc(O)cc2)C(=O)N[C@@H](Cc2ccccc2)C(=O)N[C@@H](CCC(N)=O)C(=O)N[C@@H](CC(N)=O)C(=O)N1)C(=O)NCC(N)=O`, the activation was inactive: -6.83% and inactive: -13.4%. Turning to `N#Cc1cccc(-c2nccc(NCc3ccccc3)n2)c1`, the activation is inactive: -10.9%. On to `N#CCCn1c(=O)c(-c2ccc(F)cc2)nc2cnc(N3CCOCC3)nc21`, for which the activation is inactive: -0.246%. In the case of `CN(C)c1ccc(-c2nc(NCCN3CCOCC3)c3ccccc3n2)cc1`, the activation was inactive: -14.7%.

Regarding `COc1ccccc1CNc1cc(-c2ccccc2OC)ncn1`, the activation is inactive: -14.2%. Regarding `CC(=O)N1CCN(C)CC1`, the activation is inactive: -17.5% and inactive: 1.56%. As to `CNc1c2c(nn1C)CCCC2`, the activation was inactive: -5.43%. Regarding `CC(C)=CCc1c2c(c3occ(-c4ccc(O)cc4)c(=O)c3c1O)C=CC(C)(C)O2`, the activation is inactive: -62%. `CN1CCN(c2c(F)cc3c(=O)c(C(=O)O)cn4c3c2SCC4)CC1`: the activation was inactive: 2.13%. With `Cn1cccc1C(=O)N1CCC2(CCCN(C(=O)Nc3ccccc3)C2)CC1`, the activation is inactive: 9.22%. The result for `OC1(c2ccc3c(c2)CN(Cc2ccco2)CCO3)CCN(c2ccccc2F)CC1` reads inactive: 2.96%; that for `CO[C@H]1[C@H](NC(=O)c2ccsc2)c2ccccc2C12CCN(Cc1cccc3ncccc13)CC2`, inactive: -8.23%.

On to `O=C(c1csnn1)N1CCC2(CC1)CCN(c1ccccn1)CC2`, for which the activation was inactive: -12.9%.

Consider `CCCCC#Cc1nc(NC)c2ncn([C@@H]3O[C@@H](CO)[C@H](O)[C@H]3O)c2n1`, for which the activation was inactive: -19.1%. As to `COC(=O)C1=C(C)NC(C)=C([N+](=O)[O-])[C@@H]1c1ccccc1C(F)(F)F`, the activation is inactive: -23.5%.

Consider `COc1ccccc1N1CCN(C[C@@H](O)COc2cccc3ccccc23)CC1`, for which the activation is inactive: -11.9%. As to `Cc1c(I)c(=O)n(-c2ccccc2)n1C`, the activation was inactive: 2.2%. The result for `Cc1cccc(CNc2ccnc(-c3ccccc3C(F)(F)F)n2)c1` reads inactive: -5.59%. For `Cc1ccccc1C(OCCN(C)C)c1ccccc1` (stereo not given), the activation is inactive: -5.66% and inactive: -9.12% and inactive: 17.7%. The result for `CCC1CN(CC(=O)NCc2cc(C)n(C)n2)Cc2cc(OC)ccc2O1` (stereo not given) reads inactive: -0.917%. Consider `O=C(c1cccc(F)c1)N1CCC2(CCN(Cc3ccncc3)CC2)CC1`, for which the activation was inactive: 6.8%. The result for `CC(C)C[C@H]1C(=O)N2CCC[C@H]2[C@]2(O)O[C@](NC(=O)[C@@H]3C=C4c5cccc6[nH]c(Br)c(c56)C[C@H]4N(C)C3)(C(C)C)C(=O)N12` reads inactive: 20.7% and inactive: 0.158%; that for `COc1ccc2[nH]cc(CCNc3cc(-c4ccc5c(c4)OCO5)ncn3)c2c1`, inactive: -16.8%. Turning to `NCCNS(=O)(=O)c1cccc2c(Cl)cccc12`, the activation is inactive: -2.64% and inactive: -30.7%.

Take `COCCn1c(=O)c(CCc2ccccc2)nc2cnc(Nc3cccc(OC)c3)nc21`: the activation is inactive: -1.34%. Next, `Cc1nc(CN2CCN(C(=O)CC3(c4ccccc4Cl)CC(=O)N(C)C3=O)CC2)cs1` (stereo not given): inactive: -3.26%; `Nc1ncnc2c1ncn2[C@@H]1O[C@H](COP(=O)(O)CP(=O)(O)OP(=O)(O)O)[C@@H](O)[C@H]1O`: inactive: 5.3% and inactive: -13%. Take `NC(=O)NC1NC(=O)NC1=O` (stereo not given): the activation is inactive: 2.29% and inactive: 18.4%. Regarding `COc1cc(Cl)c(C)cc1N1C(=O)[C@@H]2C[C@H]1CN2Cc1ccccn1`, the activation was inactive: -6.77%. For the compound `O=C1CCc2ccc(OCCCCN3CCN(c4cccc(Cl)c4Cl)CC3)cc2N1`, the activation was inactive: -1.51%. For `COc1ccccc1C1CN(Cc2cccn2-c2ncccn2)Cc2ccccc2O1` (stereo not given), the activation is inactive: 7.51%. Consider `CCCCCCCCCCCCCCCC(=O)C(F)(F)F`, for which the activation is inactive: -23.6%. As to `Cc1cnc(SCc2ccccn2)nc1C1CCCN(C(=O)c2ccc3c(c2)OCO3)C1` (stereo not given), the activation is inactive: 3.46%. `CN(C)CCOC(c1ccc(Cl)cc1)c1ccccn1` (stereo not given): the activation was inactive: -17.1% and inactive: -0.718%. In the case of `COc1ccc(NC(=O)N2CCC3(CC2)CCN(S(=O)(=O)c2ccccc2)CC3)cc1`, the activation is inactive: 5.15%. On to `N#CCCn1c(=O)c(-c2ccccc2)nc2cnc(Oc3cccc(Cl)c3)nc21`, for which the activation was inactive: -25.4%. Turning to `COC(=O)N1CCC2(CCCN(C(=O)Nc3cccc(F)c3)C2)CC1`, the activation is inactive: -1.68%. `COc1c2ccoc2cc2oc(=O)ccc12`: the activation was inactive: -7.38% and inactive: 0.068%. For `CNc1ncncc1-c1ccccc1OC`, the activation is inactive: -17.1%. Consider `COc1cc(-c2c(-c3ccc4c(c3)OCO4)noc2-c2ccsc2)ccc1F`, for which the activation was inactive: -21.3%. For the compound `O=C(c1ccco1)N1CCC2(CC1)CN(c1ccccc1)C2`, the activation was inactive: -7.02%. Consider `O=C(Nc1cccc(F)c1)N1CC2(CCN(C(=O)c3cc(C(F)(F)F)cc(C(F)(F)F)c3)CC2)C1`, for which the activation is inactive: -10.5%. For `COC(=O)c1ccccc1-c1cc(C)cc2c1OC(CNC(=O)c1cc(C)on1)C2` (stereo not given), the activation was inactive: -6.95%. The result for `CC(C)(C)CC(C)(C)N=C1Nc2ccccc2NC12C[C@H]1CCC(=O)N3CC[C@@H](C2)[C@@H]13` (stereo not given in full) reads inactive: -40.2%; that for `Cc1noc(C)c1C(=O)N1CCC2(CC1)CCN(c1ccccn1)CC2`, inactive: -14%. For the compound `NCCCC(N)(C(=O)O)C(F)F` (stereo not given), the activation is inactive: -3.31% and inactive: -17.6%.
